From paper PMC4336329 (PLoS ONE, 2015)
About 2,200 (0.71%) of roughly 310,000 compounds showed an effect of 50% or more. The effect is printed as a negative number. The list shows a part of the results.

target: human ether-à-go-go-related gene (hERG) potassium channel (human, UniProt Q12809); test: primary screen, population patch clamp on CHO cells stably expressing hERG
Sequence (Q12809 whole entry, looked up): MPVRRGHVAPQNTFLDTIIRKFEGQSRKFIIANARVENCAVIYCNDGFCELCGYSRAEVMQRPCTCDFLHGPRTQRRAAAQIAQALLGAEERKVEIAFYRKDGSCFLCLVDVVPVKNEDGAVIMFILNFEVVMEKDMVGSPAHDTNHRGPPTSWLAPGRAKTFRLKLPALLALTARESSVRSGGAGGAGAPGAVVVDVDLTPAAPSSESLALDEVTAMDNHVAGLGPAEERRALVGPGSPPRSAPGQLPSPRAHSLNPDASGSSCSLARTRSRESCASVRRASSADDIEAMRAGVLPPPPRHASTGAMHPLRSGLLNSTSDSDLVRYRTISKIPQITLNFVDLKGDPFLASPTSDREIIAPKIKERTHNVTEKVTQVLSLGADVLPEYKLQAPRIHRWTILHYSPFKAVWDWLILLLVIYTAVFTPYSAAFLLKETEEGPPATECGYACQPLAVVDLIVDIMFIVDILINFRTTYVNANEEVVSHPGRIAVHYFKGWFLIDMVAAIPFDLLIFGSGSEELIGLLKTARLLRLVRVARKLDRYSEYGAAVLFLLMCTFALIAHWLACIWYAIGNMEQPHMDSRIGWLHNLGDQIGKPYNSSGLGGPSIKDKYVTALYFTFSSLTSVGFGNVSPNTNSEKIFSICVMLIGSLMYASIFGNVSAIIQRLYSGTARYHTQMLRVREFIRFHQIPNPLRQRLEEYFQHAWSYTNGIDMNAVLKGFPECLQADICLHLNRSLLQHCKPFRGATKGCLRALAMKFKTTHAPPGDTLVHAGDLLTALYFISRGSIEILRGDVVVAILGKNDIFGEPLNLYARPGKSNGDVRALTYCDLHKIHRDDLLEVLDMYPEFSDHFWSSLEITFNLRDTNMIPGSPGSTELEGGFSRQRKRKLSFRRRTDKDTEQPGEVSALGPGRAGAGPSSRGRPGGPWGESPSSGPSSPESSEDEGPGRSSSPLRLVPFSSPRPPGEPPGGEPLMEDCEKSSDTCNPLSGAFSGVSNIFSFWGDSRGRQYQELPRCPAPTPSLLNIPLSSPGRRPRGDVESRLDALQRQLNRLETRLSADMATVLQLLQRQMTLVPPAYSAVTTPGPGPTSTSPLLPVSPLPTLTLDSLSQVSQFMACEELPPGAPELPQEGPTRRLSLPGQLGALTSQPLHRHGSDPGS

| Compound | hERG current change (%, negative = inhibition) at 1uM [%] |
| --- | --- |
| CCOc1ccc2[nH]c3c(NCCCOC)ncnc3c2c1 | 8.18 |
| CC(=O)c1cc(CN2CCC(N3CCC(C(=O)N4CCCC4)CC3)CC2)cs1 | 13.8 |
| CCCn1cc(S(=O)(=O)c2ccc(Cl)cc2)c(=O)c2cc(OC)ccc21 | 3.39 |
| O=C1c2ccccc2C(=O)C1c1ccc(O)cc1 | 7.6 |
| CCN(CC1CCCN(CCc2cccc(OC)c2)C1)C(=O)c1ccoc1C (stereo not shown) | -27.8 |
| COc1ccc(NC(=O)C2CCCN(S(=O)(=O)c3ccc4c(c3)oc(=O)n4C)C2)c(OC)c1 (stereo not shown) | -5.18 |
| CCCN(C(=O)c1ccc2c(SCC(=O)O)c3c(nc2c1)CCC3)c1cccc(C)c1 | 13 |
| NC(=O)CSc1ccc(S(=O)(=O)N2CCOCC2)cn1 | 8.71 |
| CC(=O)NC(C)C(=O)OCC(=O)c1ccc(Cl)s1 (stereo not shown) | 14.6 |
| Nc1ccccc1C(=O)OCCc1ccccc1 | 9.92 |
| CC1(C)Cc2cccc(OCC(=O)N3CCN(c4cccc(C(F)(F)F)c4)CC3)c2O1 | 8.43 |
| Cc1cc(C)nc(NNS(=O)(=O)c2ccc(F)c(Cl)c2)n1 | 11.6 |
| COc1ccc(NC(=O)c2cccnc2NCCc2ccccc2)cc1 | 9.86 |
| COc1ccccc1N1CCN(S(=O)(=O)c2ccc(Cl)cc2)CC1 | 12.8 |
| O=C(O)CC(CN1C(=O)c2ccccc2C1=O)c1ccccc1 (stereo not shown) | 12.7 |
| COC(=O)c1c(NC(=O)CSc2ncnc3ccccc23)sc(C)c1C | 2.87 |
| CC(=O)N(OCc1ccc(OC(C)C)c(Cl)c1)C(C)=O | 12.4 |
| NC(=O)COc1ccc(NC(=O)c2ccccc2-c2ccccc2)cc1 | 4.66 |
| Cc1ccc(Nc2nc3ccc(Cl)cc3n3cnnc23)cc1F | 13.8 |
| CC(=O)c1sc(N2CCOCC2)nc1-c1ccccc1 | 8.54 |
| O=C(c1ccccc1)N1CCN(C(=O)c2ccccc2)CC1 | 5.75 |
| COc1ccc(C2CC(=O)Oc3c(C(CCN4CCCCC4)c4ccc(N(C)C)cc4)c(OC)cc(OC)c32)cc1 (stereo not shown) | 16.6 |

| Compound | hERG current change (%, negative = inhibition) at 1uM [%] |
| --- | --- |
| COc1ccc(NC(c2ccccc2F)P(=O)(Oc2ccccc2)Oc2ccccc2)cc1 (stereo not shown) | 7.1 |
| COC(=O)Cc1c(C)nc2nc(-c3ccc(C)cc3)[nH]n2c1=O | 16.2 |
| CCCc1nnc(SCC(=O)N2CCOCC2)n1CC1CCCO1 (stereo not shown) | 17.5 |
| CC(=O)Nc1cc(C(F)(F)F)ccc1Oc1cccc(Br)c1 | 1.1 |
| Cc1ccc(-c2csc(NC(=O)COC(=O)c3cccc(S(=O)(=O)N4CCOCC4)c3)n2)cc1 | 10.1 |
| Cc1cc(N2C(=O)C(O)=C(C(=O)c3cccs3)C2c2cccc(O)c2)no1 (stereo not shown) | 12.5 |
| COc1ccc(CNc2ccc3c(c2)CCC3)cc1Br | 18.1 |
| COc1ccccc1C(=O)NNc1ncc(C)s1.Cl | 18.9 |
| O=C(O)CSc1nnc(-c2ccc(Cl)cc2Cl)n1-c1ccccc1 | 12.7 |
| CC(C)N1CC(C(=O)O)CC1=O (stereo not shown) | 13.6 |
| C=CCNC(=S)N1CCN(c2ccccc2Cl)CC1 | 7.12 |
| CN(C(=O)c1ccc(NC(=O)Cc2cccc(NC(=O)C3CCCN(C(=O)C4CCC4)C3)c2)cc1)C1CCCC1 (stereo not shown) | 0.975 |
| Cc1c(NC(=S)NC(=O)c2sc3ccccc3c2Cl)cccc1C(=O)O | 8.19 |
| COc1cccc(CNC(=O)c2ccc(Cl)c(S(=O)(=O)N3CCOCC3)c2)c1 | -1.87 |
| Clc1ccc2c(NNc3ccccc3Cl)ccnc2c1 | 11 |
| CC(CCc1ccccc1)NC(=O)/C=C/c1ccc(Cl)cc1 (stereo not shown) | 1.87 |
| Cc1ccc(NS(=O)(=O)c2ccc(OCC(=O)N3CCN(C)CC3)cc2)cc1 | 8.15 |
| Clc1ccc(-c2nnc(C34CC5CC(CC(C5)C3)C4)o2)cn1 | 1.2 |
| CC1CCC(NC(=O)CCn2ccc3cc(S(=O)(=O)N4CCCC4)ccc32)CC1 (stereo not shown) | 8.73 |
| COC(=O)C(Cc1ccccc1)NC(=O)CC(C)CC(=O)Nc1ccc(OC)cc1OC (stereo not shown) | 12.3 |
| CCOC(=O)C1(CC2CC2)CCN(Cc2ccc(OC)cc2F)CC1 | -73.3 |
| CC(C)(C)CN1CCC(n2nccc2NC(=O)c2ccccc2Cl)CC1 | 4.68 |

| Compound | hERG current change (%, negative = inhibition) at 1uM [%] |
| --- | --- |
| Cc1ccc(C(=O)Nc2nc3ccccc3[nH]2)cc1 | 4.96 |
| COc1ccc(NC(C)=O)cc1S(=O)(=O)N(C)Cc1c(C)nn(-c2ccccc2)c1C | -0.103 |
| CC(Sc1nc(NC(C)(C)C)nc(N(C)C)n1)C(=O)Nc1ccccc1 (stereo not shown) | 3.82 |
| CCC1=C(OC(=O)N(CC)CC)N2C(=O)OC(=NCC(=O)OC)[C@]2(C)[C@H]2C1=CC[C@H]1C(=O)N(C)C(=O)[C@H]12 | -6.57 |
| CCN(CC)C(=O)n1cnc(-c2ccccc2)c1-c1ccccc1 | 13 |
| O=C(NC1CCN(S(=O)(=O)c2ccc(F)cc2)CC1)c1cccc(F)c1 | 9.77 |
| COc1ccc(NC(=S)NCC(c2cccnc2)N2CCOCC2)cc1 (stereo not shown) | 9.85 |
| CC(C)NC(=O)CN1CCN(C(=O)CCl)CC1.Cl | 16.2 |
| Cc1ccc(C(O)Cn2cc([N+](=O)[O-])nc2C)cc1 (stereo not shown) | 8.73 |
| O=C(Nc1ccccc1C(=O)N1CCOCC1)c1ccc([N+](=O)[O-])cc1 | 16 |
| NC(=O)CC(NC(=O)Cc1ccc(Cl)cc1)c1ccc(NCCOc2ccccc2)c([N+](=O)[O-])c1 (stereo not shown) | 13.5 |
| CCc1ccc(OCCOCC(O)CNC2CCCC2)cc1.Cl (stereo not shown) | 7.22 |
| CCn1c(=O)n(CC(=O)NCC2CCCO2)c(=O)c2c3c(sc21)COC(C)(C)C3 (stereo not shown) | 15.2 |
| CN(C(=O)COC(=O)c1ccc(Cl)cc1N)C1CCS(=O)(=O)C1 (stereo not shown) | -4.72 |
| Cc1cccc(C)c1NC(=O)CN(C)C(=O)c1cc(S(=O)(=O)N2CCOCC2)ccc1N1CCCC1 | 0.446 |
| O=C(N/C(=C/c1ccc(Cl)cc1)c1nc2ccccc2[nH]1)c1ccco1 | 14.2 |
| COCCNC(=O)c1onc(CSc2ccc(F)cc2)c1C(=O)NCCOC | 11 |
| CCOc1cc(C)ccc1OCc1nnc(SCC(=O)c2cccc([N+](=O)[O-])c2)n1C | 3.38 |
| O=C(O)C(=O)O.O=S(=O)(c1ccc(F)cc1)N1CCC(N2CCCCCC2)CC1 | -14.5 |
| CCOc1ccc(Br)cc1CSC(=N)N.Cl | 1.41 |
| COc1cc2c(c(OC)c1OC)-c1ccc(O)c(=O)cc1[C@@H](N)CC2 | -4.4 |
| CC(C)C(=O)N1CCN(c2ccccc2NC(=O)c2cc([N+](=O)[O-])ccc2N2CCOCC2)CC1 | -46.5 |

| Compound | hERG current change (%, negative = inhibition) at 1uM [%] |
| --- | --- |
| Cc1cc(NC(=O)CSc2nnc(-c3ccncc3)n2-c2ccc(F)cc2)no1 | 6.42 |
| Cc1ccc(Cn2ncc3c(N4CCN(C)CC4)ncnc32)cc1 | -0.522 |
| O=C(O)CCC(=O)NN1C(=O)c2ccccc2NC1c1ccc(F)cc1 (stereo not shown) | 6.84 |
| CC(=O)c1ccc(S(=O)(=O)N2CCCCC2C(=O)O)cc1 (stereo not shown) | 17 |
| CC(C)CC(=O)Nc1ccc2c(c1)nc(CCN1CCOCC1)n2C | 22.8 |
| CC(C)C(=O)Nc1ccccc1C(=O)N/N=C/c1ccc([N+](=O)[O-])cc1 | 8.38 |
| O=C1NC(=O)c2cc3ccccc3cc21 | -11.5 |
| O=C(Nc1cccc2c1CCCC2)c1ccccc1Br | 13.6 |
| COc1ccc(CCNC(=O)CSc2ncc(C(=O)Nc3ccccc3)c(=O)n2C)cc1 | 4.73 |
| Cc1cc(NC(=O)CN2CCC(C)CC2)no1.O=C(O)C(=O)O | 14.4 |
| O=C(Nc1ccccc1C(=O)N1CCOCC1)c1ccc(Cl)cc1 | 11.1 |
| Cc1cc(-c2ccc(C(C)C)c(S(=O)(=O)N3CCN(c4ccccn4)CC3)c2)on1 | 13.9 |
| COc1ccc2[nH]cc(CCNC(=S)NCCc3ccccc3)c2c1 | 2.33 |
| CCOC(=O)c1cc2c3ccccc3n(CC)c2nc1N | 4.58 |
| CCn1cc(C(=O)N[C@H](C(=O)O)C(C)C)c(=O)c2cc3c(cc21)OCO3 | 1.07 |
| COc1cccc(-c2csc3nnc(SCC(=O)c4ccc(NC(C)=O)cc4)n23)c1 | -1.87 |
| CCN(CC)C(=O)Cn1cnc2ccccc2c1=O | 2.42 |
| O=C(CN1CCN(c2ccccn2)CC1)Nc1cccc(S(=O)(=O)N2CCCC2)c1 | 9 |
| CCNC(=O)NC(=O)COC(=O)CCCSc1nc2ccccc2[nH]1 | 2.85 |
| Cc1cc(C(=O)OCC(=O)Nc2nnc(C(C)C)s2)c2ccccc2n1 | 2.79 |
| O=S(=O)(Nc1ccc(Cc2ccncc2)cc1)c1ccc(Cl)s1 | 8.56 |
| CCOc1ccc(C(=O)CCC(=O)Nc2cccc(S(=O)(=O)N3CCCCC3)c2)cc1 | 0.0843 |
